Assay results published in the supplement of paper PMC3334620.
In all, about 33,000 sequences were measured (“E-score (-0.5 to 0.5)”: median about -0.017, highest 2% from about 0.3 on). The list shows a part of the results.

These sequences were tested against T1, Sut1 (UniProt P53032) (assay: PBM E-score (8-mer binding enrichment) (E-score (-0.5 to 0.5)); higher = stronger / more preferred TF binding; most listed sequences are background and not binding sites). Details: protein concentration: 200 nM; construct: GST-full length.
T1 sequence: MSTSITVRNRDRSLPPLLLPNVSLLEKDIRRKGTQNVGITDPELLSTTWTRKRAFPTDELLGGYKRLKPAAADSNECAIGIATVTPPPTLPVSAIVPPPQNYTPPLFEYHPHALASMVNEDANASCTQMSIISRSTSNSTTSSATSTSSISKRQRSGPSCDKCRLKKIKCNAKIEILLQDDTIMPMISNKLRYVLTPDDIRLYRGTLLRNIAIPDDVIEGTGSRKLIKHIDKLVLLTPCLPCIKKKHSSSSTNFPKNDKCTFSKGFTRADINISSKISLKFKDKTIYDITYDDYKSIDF
How it was run: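 E-scores (a modified Wilcoxon-Mann-Whitney statistic) were assigned by the Universal PBM Analysis Suite to every ungapped eight-base word pooled with its reverse complement. The input came from universal all-10-mer Agilent arrays made double-stranded by primer extension and probed with GST-tagged yeast transcription factors at about 100-200 nM. Fluorescent anti-GST detected bound protein, and masliner normalised the scans.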

| Sequence | PBM E-score |
| --- | --- |
| AATTACCT | 0.144 |
| CTTAGCTC | -0.0237 |
| GGGCATTA | -0.168 |
| AAAATCTT | 0.156 |
| AGAGGGAG | -0.315 |
| ACGGGCTG | -0.223 |
| AGTTAACG | 0.0439 |
| GGCTAGCC | -0.376 |
| TGACCCCA | -0.151 |
| CAGTCTAA | 0.183 |
| TCGGTAGA | 0.205 |
| CAGGAAGG | -0.255 |
| CTTCCATA | 0.00613 |
| CAGGTAGA | -0.163 |
| AGATGATG | 0.0132 |
| ACCCCAGT | 0.013 |
| GTCGTTTA | 0.0102 |
| GGGGGGCA | -0.361 |
| GGCCGTTA | 0.137 |
| AAGTTCCG | 0.0622 |
| GTGCAGGA | -0.23 |
| AAAAATCG | 0.0928 |

| Sequence | PBM E-score |
| --- | --- |
| AAGCTCCT | -0.112 |
| AAACGGGA | 0.159 |
| ACTTCTTA | 0.108 |
| TACTGAGA | -0.055 |
| GCCCCGAA | 0.184 |
| CAGCTCTA | -0.0959 |
| CTATGATA | 0.117 |
| GGTTGGTA | 0.114 |
| GCATCCCA | -0.301 |
| AAAGCAGG | -0.00755 |
| TGCCGGCA | -0.0265 |
| CATGGGGG | -0.318 |
| CAGCGCGA | -0.245 |
| AGCGATCA | -0.184 |
| GGAGTAAC | 0.258 |
| GGTCTCTA | -0.0903 |
| AGCATAGC | -0.167 |
| CGCTACCG | -0.0888 |
| CATTGCGG | -0.192 |
| CTGTGTGA | -0.0279 |
| AACGACCT | -0.0485 |
| GCGTGTGA | -0.101 |

| Sequence | PBM E-score |
| --- | --- |
| TTCATGAA | 0.00239 |
| ACAACCTC | -0.202 |
| ACCCGTAG | -0.285 |
| CGCTTATC | -0.0345 |
| CAGGGGCG | -0.346 |
| ATCGCAAG | -0.161 |
| CCAGTAAC | 0.072 |
| AACGCCTC | -0.115 |
| CTAAAGTA | 0.0339 |
| GGTGTACA | -0.084 |
| CTATATAG | 0.0328 |
| AGCCTGCA | -0.0445 |
| ATTGCCGA | -0.0492 |
| AGAATGGA | 0.112 |
| CTTCCCCA | -0.271 |
| CCAATTTA | 0.226 |
| TGTACGAA | 0.0891 |
| GTTATATA | 0.286 |
| CCGCGCGA | 0.0782 |
| ATCAACTC | -0.0768 |
| CTCGAGAC | -0.00181 |
| AGTACGAT | 0.00058 |

| Sequence | PBM E-score |
| --- | --- |
| CGGGGCGA | 0.00428 |
| AACCCAAG | 0.0241 |
| CAGTAGGC | -0.056 |
| AAGCGGCA | -0.105 |
| GAAGCAAA | 0.0636 |
| AAGTTGCA | -0.0738 |
| CTTCCGAC | 0.173 |
| GGGGCCCC | 0.0144 |
| GTTTCGTA | 0.0481 |
| ACGCCAGT | -0.148 |
| ACCAACTC | -0.00536 |
| CCAGAAAC | -0.0561 |
| AGTCTAAA | 0.121 |
| CTTATACC | 0.0712 |
| GTACGTTA | 0.0266 |
| ACCTCCGT | 0.165 |
| CACTTAAC | 0.156 |
| CACGGCAC | 0.00649 |
| GGGTCTTA | -0.168 |
| ACAATCAG | -0.0158 |
